Out of some 220,000 compounds screened, about 5,700 (2.6%) were called active. Inconclusive results, whose numbers are uncertain, are shown with a selection of clear calls. Calls come from the whole dose curve; as a rule, active = well fitted inhibition curve with a large enough effect; inconclusive = small, poorly fitted or top-dose-only effect; inactive = no such curve, though single readings can be large or run the other way. Where the call is inconclusive, the potency comes from a doubtful curve fit.
These compounds were tested against Lysine-specific demethylase 5B (Homo sapiens) (UniProt Q9UGL1) (assay: Primary screen for KDM5B Histone Demethylases FDH-coupled qHTS). Details: FDH-coupled NADH fluorescence (FDH is formaldehyde dehydrogenase); activity change, negative = inhibition: at 57.7 µM (top of the series) unless noted.
Sequence of UniProt Q9UGL1 (Q9UGL1 whole entry, looked up): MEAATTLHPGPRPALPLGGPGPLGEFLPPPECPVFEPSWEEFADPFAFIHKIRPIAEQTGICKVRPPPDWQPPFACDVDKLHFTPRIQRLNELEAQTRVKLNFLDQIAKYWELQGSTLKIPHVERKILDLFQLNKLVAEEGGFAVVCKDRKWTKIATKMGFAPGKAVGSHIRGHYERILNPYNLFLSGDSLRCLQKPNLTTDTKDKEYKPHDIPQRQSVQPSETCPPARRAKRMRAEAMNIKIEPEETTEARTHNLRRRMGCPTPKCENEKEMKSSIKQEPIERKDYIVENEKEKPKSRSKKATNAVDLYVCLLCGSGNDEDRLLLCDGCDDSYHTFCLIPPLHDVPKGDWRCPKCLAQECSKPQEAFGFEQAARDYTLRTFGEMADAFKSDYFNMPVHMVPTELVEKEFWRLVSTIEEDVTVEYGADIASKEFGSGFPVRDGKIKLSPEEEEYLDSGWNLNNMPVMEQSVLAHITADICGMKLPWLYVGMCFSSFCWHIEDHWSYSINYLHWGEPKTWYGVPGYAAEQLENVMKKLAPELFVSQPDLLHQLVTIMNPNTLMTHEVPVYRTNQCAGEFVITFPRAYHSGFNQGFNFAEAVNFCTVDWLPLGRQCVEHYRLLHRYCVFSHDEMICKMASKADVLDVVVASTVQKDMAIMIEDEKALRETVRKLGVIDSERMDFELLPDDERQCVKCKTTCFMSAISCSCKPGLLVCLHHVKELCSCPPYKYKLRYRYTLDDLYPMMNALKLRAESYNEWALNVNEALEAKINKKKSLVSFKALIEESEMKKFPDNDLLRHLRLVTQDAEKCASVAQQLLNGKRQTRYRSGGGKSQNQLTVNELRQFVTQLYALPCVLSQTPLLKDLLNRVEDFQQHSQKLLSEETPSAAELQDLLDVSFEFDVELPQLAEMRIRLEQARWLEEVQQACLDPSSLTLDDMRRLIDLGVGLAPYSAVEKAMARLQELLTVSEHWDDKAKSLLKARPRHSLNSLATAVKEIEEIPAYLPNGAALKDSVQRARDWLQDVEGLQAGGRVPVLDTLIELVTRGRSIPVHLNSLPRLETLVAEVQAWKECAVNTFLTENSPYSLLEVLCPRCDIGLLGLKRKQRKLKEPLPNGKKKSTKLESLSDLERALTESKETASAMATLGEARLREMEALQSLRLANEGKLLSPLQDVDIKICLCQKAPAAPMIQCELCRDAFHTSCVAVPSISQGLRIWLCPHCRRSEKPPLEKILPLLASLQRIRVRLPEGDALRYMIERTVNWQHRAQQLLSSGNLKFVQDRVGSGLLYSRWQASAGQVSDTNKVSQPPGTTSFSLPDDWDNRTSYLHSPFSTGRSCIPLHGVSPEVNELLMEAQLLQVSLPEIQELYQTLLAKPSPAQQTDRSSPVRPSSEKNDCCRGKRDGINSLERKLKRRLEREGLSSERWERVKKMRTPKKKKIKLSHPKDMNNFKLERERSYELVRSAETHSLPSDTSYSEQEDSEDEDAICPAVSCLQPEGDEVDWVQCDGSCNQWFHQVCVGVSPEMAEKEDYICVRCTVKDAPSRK
Summary of the method: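 Here, H3K4me3 peptide (12.5 µM in substrate mix) is demethylated by KDM5BΔAP, 200 nM final, after 10 min compound exposure. Formaldehyde product is coupled through FDH (0.25 U/mL in mix) to NADH fluorescence; 30-min ΔRFU feeds dose-response curves.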
`CC(C(Sc1ccccc1N)c1ccccc1)[N+](=O)[O-]` (configuration not stated) was tested, and the Potency was inconclusive: 17.8 µM [inhibitor, partial curve, poor fit]. For `Cc1ccc(-c2cc3c(=O)n(CCNC(=O)c4nn(C)c5ccccc45)ccn3n2)cc1C`, the Potency was active: 22.4 µM. For `CN(C)C[C@@H]1CN(c2ncccn2)C[C@H]1NC(=O)c1c(F)cccc1F`, the Potency was active: 31.6 µM. For `CC1Oc2ccc(NC(=O)c3ccc(Cl)c(Cl)c3)cc2CN(Cc2ccccc2F)C1=O` (configuration not stated), the Potency was inconclusive: 15.8 µM [inhibitor, partial curve, poor fit]. With `COc1ccc(N2Cc3nc(=O)n(CC(=O)NCc4ccccc4)n3C2=O)cc1` the “activity change, negative = inhibition” value was inactive: 17.6%. For `CC(=O)Cc1nsc(NC(=O)c2ccc(-c3cccc(Cl)c3)o2)n1`, the Potency was inconclusive: 28.2 µM [inhibitor, partial curve, poor fit]. With `COCCCNC(=O)c1cc(C2CC2)nc2ccccc12` the Potency was inconclusive: 25.1 µM [inhibitor, single point]. `N#C/C(=C\c1cc(Br)c(I)o1)c1nc2ccccc2[nH]1` was tested, and the Potency was inconclusive: 31.6 µM [inhibitor, partial curve, poor fit]. `COc1cccc(CNC(=O)CCn2nc(-c3ccccc3OC)c3c(C)cc(C)nc32)c1` was tested, and the Potency was inconclusive: 25.1 µM [inhibitor, partial curve, poor fit]. With `Cc1ccc(C(=O)NCc2nnc3cc(-c4nc(C5CC5)no4)ccn23)cc1C` the Potency was active: 28.2 µM. In the case of `COc1ccc(Nc2cc(-c3ccccc3OC)nc3c(C)noc23)cc1OC`, the Potency is reported as inconclusive: 31.6 µM [inhibitor, single point]. `CCCNC(=O)CCSc1nc(-c2ccc3c(c2)OCO3)cc(C(F)(F)F)n1` was tested, and the Potency was inconclusive: 2.82 µM [inhibitor, full curve, poor fit]. In the case of `Cc1cc(-c2cc3c(cn2)CN(Cc2ccccn2)CCN3)ccn1`, the Potency is reported as inconclusive: 39.8 µM [inhibitor, partial curve, poor fit]. In the case of `CCCc1noc(-c2cccn3c(CNC(=O)c4ccc(F)cc4)nnc23)n1`, the Potency is reported as active: 14.1 µM. With `COc1ccc(NC(=O)C2(C)CCCc3cnc(N(C)C)nc32)cn1` (configuration not stated) the Potency was active: 35.5 µM. For `Cc1ccccc1OCC(=O)Nc1nnc(-c2ccncc2)s1`, the Potency was inconclusive: 35.5 µM [inhibitor, partial curve, poor fit]. With `CCc1noc(-c2cn(C3CCN(C(=O)c4ccc5c(c4)OCO5)C3)nn2)n1` (configuration not stated) the “activity change, negative = inhibition” value was inactive: -5.37%. For `COc1ccc(S(=O)(=O)N(CC(=O)NCCN2CCOCC2)c2ccc(F)cc2)cc1`, the “activity change, negative = inhibition” value was inactive: -0.816%. In the case of `COC(=O)c1ccccc1NC(=O)C1CCN(S(=O)(=O)Cc2ccccc2Cl)CC1`, the “activity change, negative = inhibition” value is reported as inactive: 13.7%. `CCCCCCCCCNc1c2c(nc3ccccc13)CC(C)(C)CC2=O` was tested, and the Potency was inconclusive: 39.8 µM [inhibitor, single point]. In the case of `CC(=O)N1CCC(N2CC[C@H](c3nc4ccc(C#N)cc4[nH]3)C2)CC1`, the Potency is reported as inconclusive: 39.8 µM [inhibitor, partial curve, poor fit]. `CCc1nc2ccc(C(=O)NCC(F)(F)F)cc2nc1CC` was tested, and the “activity change, negative = inhibition” value was inactive: 8.86%. For `CC(C)c1ccc(OCC(=O)N(Cc2ccc(N(C)C)cc2)C2CCS(=O)(=O)C2)cc1` (configuration not stated), the Potency was inconclusive: 11.2 µM [inhibitor, partial curve, poor fit]. For `COCCCNc1nc2c([S+](=O)([O-])c3cccnc3)nnn2c2ccccc12`, the Potency was inconclusive: 56.2 µM [inhibitor, partial curve, poor fit]. For `O=C1NCCCCCCN(Cc2ccncc2)[C@@H]2CN(CC3CC3)CC[C@@H]12`, the Potency was inconclusive: 25.1 µM [inhibitor, single point]. `Cc1ccc(Cl)cc1-n1ncc2c(Nc3cccc(C)c3C)ncnc21` was tested, and the Potency was inconclusive: 35.5 µM [inhibitor, partial curve, poor fit]. For `COc1cccc(C(=O)NC2CCN(c3cc(-c4ccccc4)[nH]n3)C2)c1` (configuration not stated), the Potency was inconclusive: 17.8 µM [inhibitor, partial curve, poor fit]. For `Cc1noc(-c2ccc3c(c2)OCO3)c1C(=O)NCCC(c1ccccc1)c1ccccc1`, the Potency was active: 20 µM. For `O=C(NC1CCCN(c2nc3ncccc3o2)C1)c1ccccc1Cl` (configuration not stated), the Potency was inconclusive: 10 µM [inhibitor, partial curve, poor fit]. In the case of `Cc1ccc(NC(=O)Cn2ccn(-c3ccc(F)c(F)c3)c(=O)c2=O)cc1C`, the Potency is reported as inconclusive: 6.31 µM [inhibitor, partial curve, poor fit]. For `CC(=O)n1nc(NCc2c(F)cccc2Cl)nc1NCc1c(F)cccc1Cl`, the Potency was inconclusive: 39.8 µM [inhibitor, single point]. In the case of `COC(=O)c1ccc(NC(=O)N2CCCC(c3nn[nH]n3)C2)cc1` (configuration not stated), the Potency is reported as inconclusive: 22.4 µM [inhibitor, partial curve, poor fit]. For `CCn1c(SCC(=O)Nc2cc3c(cc2C(C)=O)OCO3)nnc1C1CC1`, the Potency was inconclusive: 31.6 µM [inhibitor, single point]. In the case of `Cc1ccc(Nc2c(-c3ccccn3)nc3cccc(C)n23)cc1`, the Potency is reported as inconclusive: 39.8 µM [inhibitor, single point]. With `COP(=O)(OC)c1nc(-c2cccs2)oc1NCc1ccc(C)cc1` the “activity change, negative = inhibition” value was inactive: -3030%. With `O=C(Cn1nc2c(cc1=O)CCCCC2)Nc1nc(-c2cccnc2)cs1` the “activity change, negative = inhibition” value was inactive: 33.3%. For `Cc1oc2cc(OCC(=O)Nc3ccc4c(c3)OCCO4)ccc2c(=O)c1-c1ccccc1`, the Potency was inconclusive: 39.8 µM [inhibitor, single point]. In the case of `CCC(CC)C(=O)Nc1nc2c(s1)CC(C)CC2` (configuration not stated), the Potency is reported as inconclusive: 15.8 µM [inhibitor, partial curve, poor fit]. For `Cc1ccc(NC(=O)Nc2cc3c(cc2Oc2ccccc2)n(C)c(=O)n3C)c(Cl)c1`, the “activity change, negative = inhibition” value was inactive: -19.1%. `O=C(COCc1cc(-c2ccc3c(c2)OCO3)on1)N1CCN(c2ccccc2)CC1` was tested, and the Potency was inconclusive: 5.01 µM [inhibitor, partial curve, poor fit]. With `O=C(Nc1ccccc1N1CCN(C(=O)c2ccc(Cl)cc2)CC1)c1cccc(F)c1` the Potency was inconclusive: 39.8 µM [inhibitor, partial curve, poor fit]. `CCOc1ccc(-n2c(-c3ccco3)nc3c(cnn3-c3ccc(C)cc3)c2=O)cc1` was tested, and the Potency was inconclusive: 25.1 µM [inhibitor, partial curve, poor fit]. `Cc1cccc(C(=O)NCc2nnc3c(-c4nc(C(C)C)no4)cccn23)c1` was tested, and the Potency was active: 28.2 µM. For `CCn1cc(CN(C)C(=O)c2ccc3c(c2)C(O)CCCCCN3CCOC)c(C)n1` (configuration not stated), the “activity change, negative = inhibition” value was inactive: -22.7%. `Cc1ccccc1C(=O)N1CCN(c2nc3ncccc3o2)CC1` was tested, and the Potency was inconclusive: 35.5 µM [inhibitor, partial curve, poor fit]. For `COc1ccccc1CNC(=O)c1nc(-c2ccccc2)oc1C`, the “activity change, negative = inhibition” value was inactive: 15.1%. `Cc1cc(CNC(=O)c2cc(-c3ccccc3C)cc3c2OCCN3C)no1` was tested, and the Potency was active: 35.5 µM. With `Cc1ccc(-c2ccnc3c2c(=O)[nH]c(=O)n3CCc2ccccc2)cc1` the “activity change, negative = inhibition” value was inactive: -2.97%. For `COc1cccc(CNC(=O)c2cc(C)nc3c2c(C)nn3-c2cccc(F)c2)c1`, the Potency was inconclusive: 56.2 µM [inhibitor, single point]. For `Cc1cccc(C(=O)NC(CC(=O)O)c2ccc(C(C)(C)C)cc2)c1` (configuration not stated), the “activity change, negative = inhibition” value was inactive: 12%. `Cc1ccc(-c2ccc(=O)n(Cc3ccc(Cl)cc3)n2)cc1S(=O)(=O)N1CCCC1` was tested, and the “activity change, negative = inhibition” value was inactive: -8.18%. For `O=C(Nc1ccc2nc(SCC(=O)N3CCCc4ccccc43)sc2c1)c1ccccc1`, the Potency was inconclusive: 17.8 µM [inhibitor, partial curve, poor fit]. With `Cc1ccc(N(CC(=O)N[C@H]2CC[C@H]2N)S(C)(=O)=O)cc1` the “activity change, negative = inhibition” value was inactive: -0.076%. For `CC(C)(C)NC(=O)CC1(C(=O)NCc2ccc(Cl)cc2)CCCC1`, the “activity change, negative = inhibition” value was inactive: 11%. With `CCn1ccc2c(OCC(=O)Nc3ccccc3C)cccc2c1=O` the Potency was inconclusive: 39.8 µM [inhibitor, single point]. In the case of `O=C(NCC1CC1)c1cc(C2CC2)nc2onc(C3CCNCC3)c12`, the Potency is reported as inconclusive: 79.4 µM [inhibitor, partial curve]. `CNC(=O)NC(=O)CNc1cccc(C)c1C(=O)OC` was tested, and the “activity change, negative = inhibition” value was inactive: 0.642%. For `O=C(c1cccc(C(F)(F)F)c1)N1CCCC(C(=O)N2CCCCCC2)C1` (configuration not stated), the “activity change, negative = inhibition” value was inactive: 19.1%. `Cc1ccc([S+](=O)([O-])N2CCc3nc(-c4ccc(Cl)cc4)nc(-c4ccccc4)c3C2)cc1` was tested, and the “activity change, negative = inhibition” value was inactive: 17.7%. With `O=C(Nc1ccc2n(c1=O)C[C@H]1C[C@@H]2CN(C(=O)c2ccc(-c3ccccc3)cc2)C1)c1ccco1` the “activity change, negative = inhibition” value was inactive: 43.4%. In the case of `Cc1cc2c(cc3c(SCc4nc(-c5ccccc5)oc4C)nnc(C)n32)o1`, the Potency is reported as inconclusive: 20 µM [inhibitor, partial curve, poor fit]. In the case of `Nc1nc(N)c2cc(Sc3ccc4ccccc4c3)ccc2n1`, the Potency is reported as inconclusive: 28.2 µM [inhibitor, partial curve, poor fit]. For `CCCc1ccc(-c2cc(C(=O)Nc3cccnc3)c3ccccc3n2)cc1`, the Potency was inconclusive: 39.8 µM [inhibitor, single point]. In the case of `O=C(NCc1cccc(C(F)(F)F)c1)C1(CCO)CCN(c2ncccn2)C1` (configuration not stated), the Potency is reported as inconclusive: 14.1 µM [inhibitor, partial curve]. With `Cc1ccc(C(=O)Nc2ccc(Cl)c(C(F)(F)F)c2)c(C)c1` the “activity change, negative = inhibition” value was inactive: -7.09%. With `CCCN1C2=C(C(=O)CC(C)(C)C2)C(c2cccc(O)c2)C2=C1CC(C)(C)CC2=O` the Potency was inconclusive: 10 µM [inhibitor, partial curve, poor fit]. In the case of `Cc1cc(C)n(-c2nc3cc(Cl)ccc3nc2NCc2ccncc2)n1`, the Potency is reported as inconclusive: 25.1 µM [inhibitor, single point].

— PubChem BioAssay AID1347165 (National Center for Advancing Translational Sciences (NCATS), 2019)
Note: nearly all actives have a fitted effect of over 70% in size.
Potency is the fitted concentration of half-maximal effect; tags give direction and shape of the fitted curve.
Throughout, for activity change, negative = inhibition: 0% is about no effect.
